# Data as given in the supplement of paper PMC8728848.
# The other results are listed elsewhere or left out.
# How the values were obtained:
# Experiment in all cases: glycan array binding signal (z-score within array); higher = stronger binding
# Details in all cases: glycan notation: IUPAC condensed, linker removed
# [1] = molecular target: Fuc(a1-2)Gal(b1-4)[Fuc(a1-3)]GlcNAc(b1-3)GalNAc
# Method in brief: (§1)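 Glycan array data were curated from 3228 arrays in the Consortium for Functional Glycomics database and kept only where the protein sequence was available. Glycan names were converted to IUPAC-condensed notation, and columns mapping to the same glycan were averaged. The binding signal is a within-array Z-score, averaged across arrays of the same protein sequence at different concentrations or buffers and across linkers. Negative Z-scores can be read as non-binding.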
# [2] = molecular target: Fuc(a1-2)Gal(b1-4)[Fuc(a1-3)]GlcNAc(b1-3)[Neu5Ac(a2-6)Gal(b1-4)GlcNAc(b1-6)]Gal(b1-4)Glc
# Method in brief: as §1
# [3] = molecular target: Fuc(a1-2)Gal3S(b1-4)GlcNAc
# Method in brief: as §1
# [4] = molecular target: Fuc(a1-2)Gal6S(b1-3)GlcNAc
# Method in brief: as §1
# [5] = molecular target: Fuc(a1-2)Gal6S(b1-3)GlcNAc6S
# Method in brief: as §1
# Fuc(a1-2)Gal6S(b1-4)Glc = molecular target: Fuc(a1-2)Gal6S(b1-4)Glc
# Method in brief: as §1
# [6] = molecular target: Fuc(a1-2)Gal6S(b1-4)Glc6S
# Method in brief: as §1
# [7] = molecular target: Fuc(a1-2)Gal6S(b1-4)GlcNAc
# Method in brief: as §1
# Fuc(a1-2)GlcNAc = molecular target: Fuc(a1-2)GlcNAc
# Method in brief: as §1
# Fuc(a1-2)[Gal(a1-3)]Gal = molecular target: Fuc(a1-2)[Gal(a1-3)]Gal
# Method in brief: as §1
# [8] = molecular target: Fuc(a1-2)[Gal(a1-3)]Gal(b1-3)GalNAc
# Method in brief: as §1
# [9] = molecular target: Fuc(a1-2)[Gal(a1-3)]Gal(b1-3)GalNAc(b1-3)Gal(a1-4)Gal(b1-4)Glc
# Method in brief: as §1
# [10] = molecular target: Fuc(a1-2)[Gal(a1-3)]Gal(b1-3)GlcNAc
# Method in brief: as §1
# [11] = molecular target: Fuc(a1-2)[Gal(a1-3)]Gal(b1-3)GlcNAc(b1-2)Man(a1-3)[Fuc(a1-2)[Gal(a1-3)]Gal(b1-3)GlcNAc(b1-2)Man(a1-6)]Man(b1-4)GlcNAc(b1-4)GlcNAc
# Method in brief: as §1
# [12] = molecular target: Fuc(a1-2)[Gal(a1-3)]Gal(b1-3)GlcNAc(b1-2)Man(a1-3)[Fuc(a1-2)[Gal(a1-3)]Gal(b1-3)GlcNAc(b1-2)Man(a1-6)]Man(b1-4)GlcNAc(b1-4)[Fuc(a1-6)]GlcNAc
# Method in brief: as §1
# [13] = molecular target: Fuc(a1-2)[Gal(a1-3)]Gal(b1-3)GlcNAc(b1-3)GalNAc
# Method in brief: as §1
# [14] = molecular target: Fuc(a1-2)[Gal(a1-3)]Gal(b1-3)GlcNAc(b1-6)GalNAc
# Method in brief: as §1
# [15] = molecular target: Fuc(a1-2)[Gal(a1-3)]Gal(b1-4)Glc
# Method in brief: as §1
# [16] = molecular target: Fuc(a1-2)[Gal(a1-3)]Gal(b1-4)GlcNAc
# Method in brief: as §1
# [17] = molecular target: Fuc(a1-2)[Gal(a1-3)]Gal(b1-4)GlcNAc(b1-2)Man
# Method in brief: as §1
# [18] = molecular target: Fuc(a1-2)[Gal(a1-3)]Gal(b1-4)GlcNAc(b1-2)Man(a1-3)[Fuc(a1-2)[Gal(a1-3)]Gal(b1-4)GlcNAc(b1-2)Man(a1-6)]Man(b1-4)GlcNAc(b1-4)GlcNAc
# Method in brief: as §1
# [19] = molecular target: Fuc(a1-2)[Gal(a1-3)]Gal(b1-4)GlcNAc(b1-2)Man(a1-3)[Fuc(a1-2)[Gal(a1-3)]Gal(b1-4)GlcNAc(b1-2)Man(a1-6)]Man(b1-4)GlcNAc(b1-4)[Fuc(a1-6)]GlcNAc
# Method in brief: as §1
# [20] = molecular target: Fuc(a1-2)[Gal(a1-3)]Gal(b1-4)GlcNAc(b1-3)GalNAc
# Method in brief: as §1
# [21] = molecular target: Fuc(a1-2)[Gal(a1-3)]Gal(b1-4)GlcNAc(b1-3)[Fuc(a1-2)[Gal(a1-3)]Gal(b1-4)GlcNAc(b1-6)]GalNAc
# Method in brief: as §1
# [22] = molecular target: Fuc(a1-2)[Gal(a1-3)]Gal(b1-4)GlcNAc(b1-6)GalNAc
# Method in brief: as §1
# [23] = molecular target: Fuc(a1-2)[Gal(a1-3)]Gal(b1-4)[Fuc(a1-3)]Glc
# Method in brief: as §1
# [24] = molecular target: Fuc(a1-2)[Gal(a1-3)]Gal(b1-4)[Fuc(a1-3)]GlcNAc
# Method in brief: as §1
# [25] = molecular target: Fuc(a1-2)[Gal(a1-3)]Gal(b1-4)[Fuc(a1-3)]GlcNAc(b1-3)GalNAc
# Method in brief: as §1
# [26] = molecular target: Fuc(a1-2)[Gal(a1-4)]Gal(b1-4)GalNAc
# Method in brief: as §1
# [27] = molecular target: Fuc(a1-2)[Gal(a1-4)]Gal(b1-4)GlcNAc
# Method in brief: as §1
# [28] = molecular target: Fuc(a1-2)[GalNAc(a1-3)]Gal
# Method in brief: as §1
# [29] = molecular target: Fuc(a1-2)[GalNAc(a1-3)]Gal(b1-3)GalNAc(a1-3)[Fuc(a1-2)]Gal(b1-4)GlcNAc
# Method in brief: as §1
# [30] = molecular target: Fuc(a1-2)[GalNAc(a1-3)]Gal(b1-3)GalNAc(b1-3)Gal(a1-4)Gal(b1-4)Glc
# Method in brief: as §1
# [31] = molecular target: Fuc(a1-2)[GalNAc(a1-3)]Gal(b1-3)GlcNAc
# Method in brief: as §1
# [32] = molecular target: Fuc(a1-2)[GalNAc(a1-3)]Gal(b1-3)GlcNAc(b1-2)Man(a1-3)[Fuc(a1-2)[GalNAc(a1-3)]Gal(b1-3)GlcNAc(b1-2)Man(a1-6)]Man(b1-4)GlcNAc(b1-4)GlcNAc
# Method in brief: as §1
# [33] = molecular target: Fuc(a1-2)[GalNAc(a1-3)]Gal(b1-3)GlcNAc(b1-2)Man(a1-3)[Fuc(a1-2)[GalNAc(a1-3)]Gal(b1-3)GlcNAc(b1-2)Man(a1-6)]Man(b1-4)GlcNAc(b1-4)[Fuc(a1-6)]GlcNAc
# Method in brief: as §1
# [34] = molecular target: Fuc(a1-2)[GalNAc(a1-3)]Gal(b1-3)GlcNAc(b1-3)GalNAc
# Method in brief: as §1
# [35] = molecular target: Fuc(a1-2)[GalNAc(a1-3)]Gal(b1-3)GlcNAc(b1-6)GalNAc
# Method in brief: as §1
# [36] = molecular target: Fuc(a1-2)[GalNAc(a1-3)]Gal(b1-4)Glc
# Method in brief: as §1
# [37] = molecular target: Fuc(a1-2)[GalNAc(a1-3)]Gal(b1-4)GlcNAc
# Method in brief: as §1
# [38] = molecular target: Fuc(a1-2)[GalNAc(a1-3)]Gal(b1-4)GlcNAc(b1-2)Man
# Method in brief: as §1
# [39] = molecular target: Fuc(a1-2)[GalNAc(a1-3)]Gal(b1-4)GlcNAc(b1-2)Man(a1-3)[Fuc(a1-2)[GalNAc(a1-3)]Gal(b1-4)GlcNAc(b1-2)Man(a1-6)]Man(b1-4)GlcNAc(b1-4)GlcNAc
# Method in brief: as §1
# [40] = molecular target: Fuc(a1-2)[GalNAc(a1-3)]Gal(b1-4)GlcNAc(b1-2)Man(a1-3)[Fuc(a1-2)[GalNAc(a1-3)]Gal(b1-4)GlcNAc(b1-2)Man(a1-6)]Man(b1-4)GlcNAc(b1-4)[Fuc(a1-6)]GlcNAc
# Method in brief: as §1
# [41] = molecular target: Fuc(a1-2)[GalNAc(a1-3)]Gal(b1-4)GlcNAc(b1-3)Gal(b1-4)GlcNAc
# Method in brief: as §1
# [42] = molecular target: Fuc(a1-2)[GalNAc(a1-3)]Gal(b1-4)GlcNAc(b1-3)Gal(b1-4)GlcNAc(b1-3)Gal(b1-4)GlcNAc
# Method in brief: as §1
binder,measurement,setting,value
XL-35 (Xenopus laevis) (protein) MLVHILLLLVTGGLSQSCDPVVIVASKNMVKQLDCDKFRNCKEIKDSNEEAQDGIYTLTSPDGISYQTFCDMTTNGGGWTLVASVHENNMAGKCTIGDRWSSQQGNRADYPEGDGNWANYNTFGSAGGATSDDYKNPGYYDIEAYNLGVWHVPNKTPLSVWRNSSLQRYRTTDGILFKHGGNLFSLYRIYPVKYGIGSCSKDSGPTVPVVYDLGSANLTASFYSPGFRSQFTPGYIQFRPINTEKAALALCPGMKMESCNVEHVCIGGGGYFPEADPRQCGDFAAYDFNGYGTKKFNSAGIEITEAAVLLFYL,glycan array binding signal (z-score),[1],0.343
same,glycan array binding signal (z-score),[2],-0.231
same,glycan array binding signal (z-score),[3],0.049
same,glycan array binding signal (z-score),[4],-0.082
same,glycan array binding signal (z-score),[5],0.672
same,glycan array binding signal (z-score),Fuc(a1-2)Gal6S(b1-4)Glc,-0.029
same,glycan array binding signal (z-score),[6],-0.272
same,glycan array binding signal (z-score),[7],-0.092
same,glycan array binding signal (z-score),Fuc(a1-2)GlcNAc,-0.021
same,glycan array binding signal (z-score),Fuc(a1-2)[Gal(a1-3)]Gal,0.198
same,glycan array binding signal (z-score),[8],0.075
same,glycan array binding signal (z-score),[9],-0.322
same,glycan array binding signal (z-score),[10],-0.091
same,glycan array binding signal (z-score),[11],-0.278
same,glycan array binding signal (z-score),[12],0.06
same,glycan array binding signal (z-score),[13],-0.477
same,glycan array binding signal (z-score),[14],-0.025
same,glycan array binding signal (z-score),[15],0.185
same,glycan array binding signal (z-score),[16],-0.007
same,glycan array binding signal (z-score),[17],-0.314
same,glycan array binding signal (z-score),[18],0.337
same,glycan array binding signal (z-score),[19],-0.409
same,glycan array binding signal (z-score),[20],-0.589
same,glycan array binding signal (z-score),[21],0.298
same,glycan array binding signal (z-score),[22],-0.256
same,glycan array binding signal (z-score),[23],-0.158
same,glycan array binding signal (z-score),[24],-0.202
same,glycan array binding signal (z-score),[25],0.089
same,glycan array binding signal (z-score),[26],-0.077
same,glycan array binding signal (z-score),[27],0.604
same,glycan array binding signal (z-score),[28],-0.015
same,glycan array binding signal (z-score),[29],0.405
same,glycan array binding signal (z-score),[30],-0.156
same,glycan array binding signal (z-score),[31],-0.315
same,glycan array binding signal (z-score),[32],-0.212
same,glycan array binding signal (z-score),[33],-0.189
same,glycan array binding signal (z-score),[34],0.124
same,glycan array binding signal (z-score),[35],-0.223
same,glycan array binding signal (z-score),[36],-0.179
same,glycan array binding signal (z-score),[37],-0.096
same,glycan array binding signal (z-score),[38],-0.318
same,glycan array binding signal (z-score),[39],-0.201
same,glycan array binding signal (z-score),[40],0.269
same,glycan array binding signal (z-score),[41],-0.423
same,glycan array binding signal (z-score),[42],-0.154
